The results in this text go back to the RNAGym collection of RNA variant scans (doi:10.7554/elife.90254).

B1: LINE1-mini (parent)
chain: GGCAGAGCUCAACACAGCGUGGCAAAGUGGCUGUGGCUAGACUGCC

The source gives no read counts; variants with many changes may rest on few reads.

The data set covers variants of B1. The data set is described as follows: self-cleavage, relative activity (ratio to wild type); higher = more cleavage; in vitro, sequencing; the parent is a self-cleaving ribozyme.
A25G A26C G44U C45A: the self-cleavage worked out at 0.13.

As to A25U U32G G35A A41C, the self-cleavage is 0.2.

On to A25U G30C G33C, for which the self-cleavage was determined as 0.01.

Turning to A26G U28C G30U U32G G44C, the self-cleavage amounted to 0.02.

Consider A24G U28C G40C, for which the self-cleavage was 0.28.

In the case of A26C G30C G36A, the self-cleavage was 0.07.

A25G A26U G27A: the self-cleavage amounted to 0.72.

For the variant A25C G29U C45U, the self-cleavage worked out at 0.14.

With A24G G27U G30C U38C, the self-cleavage was found to be 0.85.

Consider A25U A26G G33A, for which the self-cleavage is 0.02.

As to A25C A26C U28C C31U G33A U38C, the self-cleavage stood at 0.04.

In the case of A24U G35U G40U, the self-cleavage turned out to be 0.04.

With A24U G27A C46G, the self-cleavage came out at 1.53.

In the case of A24G G29C U38G G40U C42G, the self-cleavage worked out at 0.01.

As for A24U C31A A39C A41U, the self-cleavage is 0.02.

As for A26C C31G C37U A39C G44U, the self-cleavage was found to be 0.04.

Turning to A26C G33C A39G, the self-cleavage was 0.04.

In the case of A26G G27A C42A G44C C45A, the self-cleavage came out at 0.04.

For the variant A25G U32A G33A U43A G44C, the self-cleavage stood at 0.03.

As to A25G G30C U34C G35C C42A, the self-cleavage worked out at 0.

Regarding A25G G35C U43G, the self-cleavage was determined as 0.01.

Take A24U U28A G29C C31G: the self-cleavage is 0.28.

For the variant A26G G33U G40U, the self-cleavage was found to be 0.

Consider A24U G33U G35C, for which the self-cleavage was found to be 0.02.

As to A24G G36C C42A, the self-cleavage was 0.06.

For A24U G29C U38G, the self-cleavage came to 0.01.

As to A25C G35U A39C, the self-cleavage was found to be 0.11.

On to A26C G27U G29A G33C C37G, for which the self-cleavage stood at 0.04.

Turning to A25C G27A U34G C45U, the self-cleavage was 0.11.

Regarding A25G G29U A41U, the self-cleavage was 0.26.

Consider A26C G35U G36A, for which the self-cleavage was 0.08.

Regarding A25U G35U G44U, the self-cleavage worked out at 0.03.

Turning to A24G G29U G33C G36A A39G, the self-cleavage came to 0.

On to A26G A41U C46A, for which the self-cleavage came out at 0.08.

For the variant A25C U32C C45G, the self-cleavage was 0.02.

Take A26C U32A U43C G44C: the self-cleavage worked out at 0.

For the variant A26C A41U U43A, the self-cleavage was 0.04.

Turning to A25G C31U A39G, the self-cleavage was determined as 0.02.

With A26G G35C C42G, the self-cleavage was 0.

A26C G40U C46A: the self-cleavage came out at 0.1.

Consider A26G G36A A39C, for which the self-cleavage was 0.06.

Take A24U C42A C45A: the self-cleavage was 0.54.

On to A25C U43C C46A, for which the self-cleavage was 0.11.

Take A25U G27U A39U: the self-cleavage was 0.73.

Turning to A26G C37A C45A, the self-cleavage stood at 0.06.

With A25C G36A G44A, the self-cleavage was 0.04.

Take A25G G29A C31G G36C: the self-cleavage worked out at 0.03.

Turning to A24G U28G G35C, the self-cleavage came out at 0.05.

As to A25U C37U A39U U43C, the self-cleavage worked out at 0.02.

As to A25U G33U G35C, the self-cleavage worked out at 0.12.

As to A25U G27U G29U A41G C46G, the self-cleavage worked out at 0.11.

As to A25C U34G G36A U38A A39U G44A, the self-cleavage was 0.

Turning to A24U G29C G30C, the self-cleavage was 0.14.

For the variant A25G C31A C37G G44C, the self-cleavage is 0.05.

For the variant A25C G44A C45A, the self-cleavage was 0.11.

Consider A26C U28A G33U, for which the self-cleavage amounted to 0.07.

With A25U C37A G44A, the self-cleavage is 0.05.

As to A24G U32G G33U C46U, the self-cleavage was found to be 0.04.

With A25U U32G U38G, the self-cleavage came out at 0.02.

Turning to A26C G27U G44A, the self-cleavage was 0.49.

With A24G U43A G44A, the self-cleavage worked out at 0.05.

A24U U28G C37G: the self-cleavage was found to be 0.01.

For A25G G30A G35U, the self-cleavage turned out to be 0.06.

Take A26G G27C G44A: the self-cleavage came out at 0.15.

For A24U U28A G30U G36U, the self-cleavage worked out at 0.22.

For the variant A26G G35U G36U, the self-cleavage turned out to be 0.13.

Turning to A25G G27C G29U G30U, the self-cleavage came out at 0.08.

With A24U A26G U34A U43C, the self-cleavage is 0.04.

For the variant A25C C31A C46U, the self-cleavage is 0.13.

In the case of A24G U32A U34A, the self-cleavage worked out at 0.04.

As for A25U G33A G35C, the self-cleavage amounted to 0.01.

Regarding A25U G27U G36A, the self-cleavage amounted to 0.16.

For A25U A26G G35C, the self-cleavage is 0.06.

Take A24U G33C U34G: the self-cleavage is 0.01.

As to A25C U34A C42U, the self-cleavage is 0.

With A24U U34G C42A U43C, the self-cleavage turned out to be 0.05.

Turning to A24U U32G C42A, the self-cleavage amounted to 0.08.

With A26G U32C G33C, the self-cleavage was 0.02.

Turning to A26C U32A C46U, the self-cleavage turned out to be 0.08.

Consider A24U A39U C46A, for which the self-cleavage is 0.58.

Consider A25C G27A U32G G36A, for which the self-cleavage turned out to be 0.05.

Take A25U A39C C45G: the self-cleavage was found to be 0.33.

With A25U G30U G33C, the self-cleavage was 0.11.

A26G G27U G29U A41C: the self-cleavage was found to be 0.04.

For A26C G36A U43G C45U, the self-cleavage worked out at 0.

As to A26G G36U G40C, the self-cleavage stood at 0.03.

Regarding A26G G36U G40U, the self-cleavage was 0.2.

Regarding A25U G30U A41U, the self-cleavage amounted to 0.1.

On to A26G G44A C46G, for which the self-cleavage amounted to 0.04.

With A26C G27C U38G, the self-cleavage turned out to be 0.01.

As to A25G C31A C42G, the self-cleavage worked out at 0.14.

Take A24G G35A A39C: the self-cleavage was 0.03.

Take A25G C42G C46A: the self-cleavage is 0.

A24U G27U C45A: the self-cleavage is 0.87.

In the case of A24U G33C C42U U43G, the self-cleavage is 0.01.

Consider A24U G27U U32G G35C A39G C45U C46U, for which the self-cleavage came out at 0.14.

Take A25U G30U G33U C37U: the self-cleavage came to 0.19.

As to A25C A26G U32C, the self-cleavage came out at 0.03.

A25U A26U U32C: the self-cleavage was determined as 0.12.

A25C G27A G29A: the self-cleavage worked out at 0.91.

With A26U G27C G33C G36U, the self-cleavage worked out at 0.04.

Regarding A25U C31A G44C, the self-cleavage turned out to be 0.03.

In the case of A26C G27U C37U C46G, the self-cleavage was found to be 0.

For the variant A26G G29U G30A U32A G33A U38C A39G, the self-cleavage worked out at 0.02.

Take A25G G33U U38C: the self-cleavage worked out at 0.2.

Turning to A25G A26G U28A G40A, the self-cleavage came out at 0.23.

As to A25C A39U G40A, the self-cleavage came out at 0.09.

Turning to A25G G33C U43G, the self-cleavage worked out at 0.05.

Consider A26C C45U C46A, for which the self-cleavage was 0.78.

As to A24U G27U A41G G44C, the self-cleavage was 0.01.

For the variant A26G G29A U32G, the self-cleavage amounted to 0.03.

As for A25U A26U G40A, the self-cleavage came to 0.05.

Consider A26U G27C U43C, for which the self-cleavage amounted to 0.06.

Regarding A24U G35A C46U, the self-cleavage is 0.

For the variant A24U G33A G35C, the self-cleavage came to 0.03.

In the case of A26G G33C C46U, the self-cleavage was 0.06.

For A26G G27A G40A, the self-cleavage came out at 0.11.

On to A26G G27A G40C, for which the self-cleavage is 0.06.

Consider A25U G27A G30U G44U, for which the self-cleavage turned out to be 0.

Consider A24U A39G C46A, for which the self-cleavage turned out to be 0.08.

In the case of A25C G44U C45A, the self-cleavage was found to be 0.03.

In the case of A26G G35A U38G, the self-cleavage worked out at 0.

As for A25G U28C C37U, the self-cleavage was 0.05.

As to A24U U32A C45G, the self-cleavage worked out at 0.02.

As for A25C G36U A39U, the self-cleavage was 0.31.

Regarding A26G U34A G36U, the self-cleavage came to 0.06.

Consider A25U G30A C31U C46G, for which the self-cleavage was 0.01.

On to A24U A41C C42U, for which the self-cleavage is 0.08.

As to A26G G29C G33U C46G, the self-cleavage stood at 0.03.

Regarding A25C U32A U34G C37G C42U, the self-cleavage amounted to 0.03.

With A26C C31U A39G G44C, the self-cleavage was 0.01.

For A26G C31U C42U, the self-cleavage came out at 0.44.

Consider A25C A26C C45U, for which the self-cleavage came out at 0.14.

For the variant A26G U32A G40A, the self-cleavage turned out to be 0.09.

Turning to A25U G29U U43A C45A, the self-cleavage turned out to be 0.03.

With A24U G30A U34C C46G, the self-cleavage is 0.06.

With A25U G33A C37U, the self-cleavage came out at 0.03.

For the variant A26G G35A C37U U43A, the self-cleavage came to 0.02.

With A25C G36A C42U, the self-cleavage was found to be 0.24.

Regarding A25U G35U A39G, the self-cleavage came to 0.03.

With A25U G35U A39C, the self-cleavage was 0.06.

As for A25U G27A C42G, the self-cleavage came to 0.05.

A25C A26G G35A U38A: the self-cleavage amounted to 0.02.

With A24U G27C A39U A41C C42A, the self-cleavage worked out at 0.04.

On to A24U U32C C46U, for which the self-cleavage was 0.05.

Take A25U G35U U38G A41C G44C: the self-cleavage is 0.03.

For A25C G27A C31U G33C C46A, the self-cleavage was 0.05.

In the case of A26C G33C U34C, the self-cleavage worked out at 0.02.

On to A25U G44A C46A, for which the self-cleavage was determined as 0.03.

For the variant A24G G27U G36U, the self-cleavage came to 0.02.

Turning to A24U G27C G33U, the self-cleavage was 0.08.

As to A25U A39G C42G, the self-cleavage amounted to 0.01.

Take A25U C31U G36U C37A G40A C46A: the self-cleavage was determined as 0.09.

On to A25C G33U C42U, for which the self-cleavage turned out to be 0.03.

A26G C31A G36A: the self-cleavage is 0.36.

Turning to A26G G27C U28A G33A G40U C42G, the self-cleavage was found to be 0.06.

As to A24U U32C C42G G44C, the self-cleavage amounted to 0.03.

Turning to A25C G27A G29C U34G A41U, the self-cleavage is 0.03.

With A24G G35U C46U, the self-cleavage was found to be 0.11.

As to A26C G36U G40A C42A, the self-cleavage amounted to 0.06.

Consider A26C G35U C45U, for which the self-cleavage was determined as 0.1.

With A25G U28A A39G C45U, the self-cleavage is 0.01.

A26U G27C U34A C37U: the self-cleavage turned out to be 0.04.

Take A26C G27U C31A: the self-cleavage worked out at 0.92.

Turning to A26G G29C C46A, the self-cleavage was 2.14.

As for A25U A26G U34C, the self-cleavage was 0.08.

A25C G44A C46U: the self-cleavage stood at 0.06.
